In all, about 46,000 compounds went through this assay and about 60 (0.1%) were called active. Roughly 3% stayed inconclusive and do not appear here. Calls follow the shape of the dose curve; as a rule, active = well fitted inhibition curve with a large enough effect; inconclusive = small, poorly fitted or top-dose-only effect; inactive = no such curve, though single readings can be large or run the other way. The list shows a part of the results.
test: Primary qHTS assay for Inhibitors of ovarian cancer metastasis using an organotypic tumor microenvironment (TME) model.; also: nearly all actives have a fitted effect of over 65% in size;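 as to activity change, negative = inhibition: plate controls were DMSO wells for no effect and tomatine positive control wells for full effect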; conditions: SKOV3ip1-GFP adhesion/invasion on 3D omental model, fluorescence; series mostly up to 45.8 µM; activity change, negative = inhibition: at the top concentration
In short: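 qHTS, 4-pt dose (0.36-46 umol/L); SKOV3ip1-GFP, 1,200 cells/well, no FBS; primary omental fibroblast/mesothelial co-culture 48 h pre-grown; 2 h RT + 16 h 37 C; PBS wash, 4% PFA; GFP count 488/509 nm.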

Activity change, negative = inhibition, inactive:
CCCN(CCC)CCNC(=O)Cn1cc2c(n1)-c1c(oc(C(=O)N3CCCC3)c1C)CC2 -9.97%
CCOc1ccc(Cn2c(-c3ccc(OCC)c(OC)c3)nc3ccccc32)cc1OC -4.12%
Cc1cc(NCc2ccccc2Cl)n2cnnc2n1 -29.1%
Cc1ccc(NC(=O)CSc2nc3ccccc3nc2Cc2ccccc2)c(C)c1 -2.87%
Cc1cccc(NC(=O)c2cc(-c3ccc4c(c3)OCCO4)on2)c1 -0.75%
COc1ccc(S(=O)(=O)N2CCN(c3ccc(Cl)c(Cl)c3)CC2)c2ccccc12 2.62%
COc1ccc(CNC(=O)C2CCN(S(=O)(=O)c3ccc(F)cc3)CC2)cc1 3.96%
Cc1ccc(CNC(=O)C2CCCCN2S(=O)(=O)c2ccc(F)cc2)cc1 (stereo unspecified) 3.37%
CC(CNC(=O)c1ccc(CSc2nc3ccncc3n2Cc2ccc(F)cc2)cc1)c1ccccc1 (stereo unspecified) 5.05%
CCN(c1ccccc1)S(=O)(=O)c1nnc(NC(=O)C(C)(C)C)s1 3.73%
COC(=O)c1ccc2c(c1)N(Cc1cc(C)ccc1C)C(=O)c1ccccc1S2 -0.146%
COc1ccc(-c2cc3ccc(O)c(CN4CCCC(C)C4)c3oc2=O)cc1 (stereo unspecified) -4.39%
CCOc1ccc(CCNC(=O)Cn2c(=O)c3cccn3c3ccc(F)cc32)cc1OCC -8.64%
COC(=O)c1ccc(Cn2c(SCc3ccccc3F)nc3ccncc32)cc1 14.2%
Cc1nc2nc(NCc3cccc(Cl)c3)[nH]n2c(=O)c1Cc1ccccc1 1.51%
CCN(CC)S(=O)(=O)c1ccc2c(c1)nc(CN(C)C(=O)Nc1cccc(Cl)c1)n2C -23%
COc1cccc(C(=O)c2cn(CC(=O)Nc3cccc(C(F)(F)F)c3)c3nc(C)ccc3c2=O)c1 -2.58%
CC(=O)N1CCc2cc(S(=O)(=O)NC(CC(C)C)C(=O)NCCc3ccc(C)cc3)ccc21 (stereo unspecified) 4.14%
COc1ccc(Cn2c(CCC(=O)Nc3ccc(C)c(C)c3)nc3cccnc32)cc1 -1.7%
Cc1ccc(Cl)cc1-n1ncc2c(NCc3ccc(F)cc3)ncnc21 -0.355%
CC1C(=O)Nc2ccc(S(=O)(=O)NCc3ccc(N(C)C)cc3)cc2NC1=O (stereo unspecified) -6.44%
COc1ccc(OCCn2c(C(C)Oc3ccccc3)nc3ccccc32)cc1 (stereo unspecified) 2.04%
CCOC(=O)c1cnc2ccc(C(=O)OC)cc2c1Nc1ccccc1CC 3.94%
Cc1ccccc1Cn1nnc2c(=O)[nH]c(C3CCN(C(=O)c4ccccc4)CC3)nc21 -22%
CCOc1ccc(C2c3[nH]c4ccccc4c3CCN2C(=O)Cc2cccc(OCC)c2OCC)cc1 (stereo unspecified) -1.93%
CCOC(=O)c1c(S(=O)(=O)NCC(=O)Nc2ccc(C)c(Cl)c2)c(C)n(C)c1C 6.21%
COc1ccc(NC(=O)C2CCCN2S(=O)(=O)c2cccc3cccnc23)cc1OC (stereo unspecified) 10.6%
CC(C)(C)n1cnc2cc(NCc3ccccc3Cl)ccc21 6.36%
CSc1ncc(C(=O)NCc2ccccc2)c(-c2ccccc2)n1 -9.19%
O=C(C=Cc1ccc(O)cc1)c1ccc(O)cc1O 0.446%
CN(C)c1ccc(CNC(=O)C2CCN(S(=O)(=O)c3ccc4c(ccn4C)c3)CC2)cc1 1.64%
COCCCn1c(SCC(=O)NCc2ccccc2)nc2c(sc3ccccc32)c1=O 0.353%
COc1ccc(C(=O)Nc2nc3c(s2)CCc2cc(OC)ccc2-3)cc1 -7.85%
Cc1ccc(N2CCN(C(=O)c3c4c(nc5ccccc35)C(=O)N(C3CCCCC3)C4)CC2)c(C)c1 0.242%
CCOC(=O)c1ccc(NC(=O)C(CC)Sc2nc3ncccc3o2)cc1 (stereo unspecified) 16%
CN(C)c1ccc2nc3ccc(=[N+](C)C)cc-3sc2c1 1.36%
Cc1ccc(C)c(N2CCN(C(=O)Cn3c(-c4cccs4)cc4ccccc43)CC2)c1 5.63%
CCN(C(=O)Cn1cc(S(=O)(=O)Cc2ccccc2Cl)c2ccccc21)c1ccccc1 -10.7%
Cc1ccc(-n2c(SCC(=O)Nc3ccc4c(c3)OCO4)nc3c([nH]c4ccccc43)c2=O)cc1 7.45%
CCOc1cc(C2c3c(oc4ccc(F)cc4c3=O)C(=O)N2Cc2ccco2)ccc1O (stereo unspecified) 14.1%
CC(C)n1c(C=C[C@H](O)C[C@H](O)CC(=O)O)c(-c2ccc(F)cc2)c2ccccc21 1.69%
CCc1nc(-c2cccc(C)c2)c(-c2ccnc(NC(=O)c3ccccc3)c2)s1 7.85%
Cc1ccc(-n2ncc3c(N4CCN(CCO)CC4)ncnc32)cc1Cl 1.67%
CCCCNc1nc(Oc2ccc(OCC(N)=O)nn2)nc(N2CCOCC2)n1 -12.3%
COc1ccc(CCNc2ncnc3c2c(-c2ccccc2)cn3-c2ccc(F)cc2)cc1OC 2.53%
Cc1cccc(C(=O)N2CCc3cc(CNC(=O)Cc4ccc(F)cc4)ccc32)c1 2.83%
CCc1ccccc1N(C)C(=O)c1cnc(N2CCOCC2)c2ccccc12 -7.87%
CN1C(C(=O)Nc2ccccn2)=C(O)c2sccc2S1(=O)=O -15%
COc1ccc(CCNC(=O)Cn2c(=O)n(-c3cc(OC)c(OC)c(OC)c3)c(=O)c3ccccc32)cc1OC 2.02%
CCOc1ccc(CCNCc2c(C(=O)O)n(Cc3ccc(C)cc3)c3cc(OC)ccc23)cc1 -23.5%
CC(C)C(C)C=CC(C)C1CCC2C3=CC=C4CC(O)CCC4(C)C3CCC21C (stereo unspecified) -5.41%
CCn1cc(C(=O)NCCCN(CC(C)C)CC(C)C)c(=O)c2cc(S(=O)(=O)N(C)C3CCCCC3)ccc21 4.08%
COc1ccc(NC(=O)CCc2nnc3n(C)c(=O)c4sccc4n23)cc1Cl 0.314%
O=C(NCc1ccccc1Cl)c1cnc2sc(N3CCOCC3)nn2c1=O -2.11%
Cc1ccc(S(=O)(=O)c2nc(-c3ccccc3Cl)oc2N2CCCCCC2)cc1 -11%
CCc1ccc(NC(=O)C(=O)NCC(c2ccc3c(c2)OCO3)N2CCOCC2)cc1 (stereo unspecified) 0.551%
COc1ccc(-c2cc(C(=O)Nc3ccn(Cc4ccc(C)cc4)n3)no2)cc1OC -3%
COc1ccc(C2=NS(=O)(=O)N(C)C(C(=O)NCc3ccccc3)=C2)cc1OC -3.91%
COc1cc2oc(=O)c(CC(=O)N3CCCCC3)c(C)c2cc1OC 28.4%
COc1cccc(C(=O)Nc2ccc(-c3nc4ccccc4s3)cc2Cl)c1 1.91%
CCn1c(=O)n(-c2ccc(F)c(Cl)c2)c(=O)c2c3c(sc21)CN(C(C)=O)CC3 -0.655%
CCOC(=O)c1nc(N2CCN(c3ccc(F)cc3)CC2)c2c(C)noc2n1 0.658%
COc1ccc(-c2csc3nc(-c4ccc(F)cc4)oc(=O)c23)cc1 2.2%
Cc1ccc(C)c(CSc2cn(CC(=O)N3CCCCCC3)c3ccccc23)c1 -1.23%
COc1cccc(N2C(=O)CSC23C(=O)N(Cc2ccccc2)c2ccccc23)c1 (stereo unspecified) 18.9%

outcome, inactive:
Cc1cccc(-c2nnn3c2nc(NCCc2ccc(S(N)(=O)=O)cc2)c2ccccc23)c1
COCCNC(=O)c1ccc2c(c1)N(Cc1cc(C)ccc1C)C(=O)c1ccccc1S2(=O)=O
CCSc1ncc(Cl)c(C(=O)N(Cc2ccc(N(C)C)cc2)Cc2ccco2)n1
COCCNC(=O)CSc1nc2cc3c(cc2c(=O)n1CCCC(=O)NCc1ccc(OC)cc1)OCO3
COC(=O)c1cc(S(=O)(=O)NCC2CCN(Cc3ccc(F)cc3)CC2)c[nH]1
CSc1ncc(C(=O)Nc2cccc(C)c2C)c(-c2ccccc2)n1
Cc1ccc(NC(=O)CSc2nc(-c3ccc(C(C)(C)C)cc3)nc3cc(=O)[nH]n23)cc1C
Cc1ccc(-c2nc(-c3cc4cccc(OCc5ccc(F)cc5)c4oc3=O)no2)cc1
CCOc1ccc2nc(N3CCCC(C(=O)NCCCOC)C3)sc2c1 (stereo unspecified)
COc1ccc(-c2nc3sc(CCNC(=O)c4cccc(C(F)(F)F)c4)c(C)n3n2)cc1
Cc1cc(C)cc(-n2ccnc2SCC(=O)Nc2nc3ccccc3s2)c1
CCC(C(=O)NCc1ccccc1OC)n1nc(C)n2c(cc3sccc32)c1=O (stereo unspecified)
CC(C)Oc1ccc(CNC(=O)c2ccc(NC(=O)N3CCSc4ncccc43)cc2)cc1
Cc1ccc(C)c(Nc2nn3c(=O)c4ccc(C(=O)NCCc5ccccc5)cc4nc3s2)c1
Cc1ccc(-c2cc(C(=O)NCc3cnn(C)c3)c3cc(Br)ccc3n2)cc1
CCC(=O)C1=C(c2cccc([N+](=O)[O-])c2)N(C(=O)CC)n2c(nnc2-c2ccccc2)S1
Cc1ccc(Cc2nc3ccccc3nc2SCC(=O)NCc2ccc(F)cc2)cc1
Cc1cc(Br)ccc1NC(=O)c1cn(C2CCCC2)c(=O)c2c1c1ccccc1n2C
CCOc1ccc(NC(=O)c2cc(S(=O)(=O)N3CCCCC3)c[nH]2)cc1
COc1cccc(CNc2nc3c(-c4ccccc4)nnn3c3ccccc23)c1
COc1cccc(NS(=O)(=O)c2ccc3[nH]cc(C(=O)NCCc4ccccc4)c(=O)c3c2)c1
CN(Cc1ccccc1)C(=O)CSc1nc2ccsc2c(=O)n1-c1ccc(F)cc1
CCc1ccccc1NC(=O)Cn1c(=O)n(CC2CCC(C(=O)NCCc3ccccc3)CC2)c(=O)c2ccccc21 (stereo unspecified)
O=S(=O)(c1ccccc1F)N1CCC(Oc2ccc(-n3cnnn3)cc2)CC1
COc1cccc(N2C(=O)N(Cc3ccc(C#N)cc3)c3ccccc3S2(=O)=O)c1
COc1ccc(-c2noc(-c3ccc(NCc4cccnc4)c([N+](=O)[O-])c3)n2)cc1
CCC(=O)N1CCc2cc(Br)cc(S(=O)(=O)CCC(=O)Nc3ccc(C)c(C)c3)c21
Cc1ccc(Cl)c(NC(=O)Nc2csc3c2CCCC3)c1
CCS(=O)(=O)N1CCC(n2c(C)nc3cccnc32)CC1
COCCNC(=O)c1ccc(-n2c(-c3ccccc3)cc3c2CCCCC3)cc1
COc1ccc(NC(=O)CCCc2nnc3n(CCC(C)C)c(=O)c4sccc4n23)c(OC)c1
